# Assay results as given in PMC6919601, “Identification of Plasmodium dipeptidyl aminopeptidase allosteric inhibitors by high throughput screening” (PLoS ONE, 2019).
# Several values for one entry are separate records, joined by “and”; a condition that tells them apart may be missing. Equal entries are not always repeated. The whole screen tested about 110,000 compounds, of which about 230 (0.21%) showed an effect of 50% or more. The list shows a part of the results.
# Target: DPAP1 (Plasmodium falciparum, UniProt Q8IIJ9)
# Sequence (Q8IIJ9 whole entry, looked up): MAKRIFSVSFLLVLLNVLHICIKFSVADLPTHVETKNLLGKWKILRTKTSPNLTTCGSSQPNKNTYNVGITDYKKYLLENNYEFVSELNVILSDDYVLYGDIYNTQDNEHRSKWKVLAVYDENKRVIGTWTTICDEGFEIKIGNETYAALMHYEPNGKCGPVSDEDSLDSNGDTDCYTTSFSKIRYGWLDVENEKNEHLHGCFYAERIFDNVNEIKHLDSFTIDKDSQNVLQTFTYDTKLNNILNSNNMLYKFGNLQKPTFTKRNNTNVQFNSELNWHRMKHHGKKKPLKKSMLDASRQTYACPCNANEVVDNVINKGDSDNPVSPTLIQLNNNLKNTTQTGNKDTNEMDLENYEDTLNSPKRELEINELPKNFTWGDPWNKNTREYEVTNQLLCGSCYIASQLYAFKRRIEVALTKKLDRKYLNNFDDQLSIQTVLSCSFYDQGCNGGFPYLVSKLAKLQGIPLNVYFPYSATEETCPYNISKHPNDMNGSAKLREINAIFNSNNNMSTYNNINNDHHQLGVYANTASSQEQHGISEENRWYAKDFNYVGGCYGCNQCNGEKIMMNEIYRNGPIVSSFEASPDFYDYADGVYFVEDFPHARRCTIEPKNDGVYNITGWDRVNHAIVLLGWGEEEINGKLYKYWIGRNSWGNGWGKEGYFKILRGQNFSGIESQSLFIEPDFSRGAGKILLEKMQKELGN
# Experiment: primary screen, percent inhibition; read by cleavage of a fluorogenic dipeptide substrate; higher = more effect of the substance
# Set-up: species or system P. falciparum D10 trophozoite lysates; single well
# 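Further: 30 min substrate incubation versus DMSO and 10 µM JCP410 controls.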
row,SMILES,% Inhibition @ 10 uM
1,CC(C(=O)N1CCN(C)CC1)N1C(=O)c2ccccc2C1=O (centres unmarked),-2.75%
2,CC(C)(C)c1[nH]nc2c1C(c1cccs1)C(C#N)=C(N)O2 (centres unmarked),2.67%
3,O=C(O)CCn1c2c(c3ccccc31)CCCC2,-0.744%
4,C=CCSc1ncccc1C(=O)NCc1ccc(C)cc1,2.79%
5,O=C(c1cccs1)N1CCc2ccccc21,1.83%
6,O=C(NCc1ccccc1)c1ccc(CSCc2ccc(Cl)cc2)o1,3.66%
7,N#C/C(=C\c1ccccc1Cl)C(N)=O,-1.25%
8,Nc1cc(N)nc(SCC(=O)NCc2ccccc2)n1,3.72%
9,Cn1c(=O)c2sccc2n2c(CCC(=O)NCCc3c[nH]c4ccccc34)nnc12,-3.13%
10,CC(C)c1ncc(C(O)c2ccccc2)n1C (centres unmarked),3.15%
11,CCOc1ccc(NC2=C(Cl)C(=O)N(c3ccc(OC)cc3)C2=O)cc1,-5.48%
12,COc1ccc(/C=C(\NC(=O)c2ccccc2)C(=O)NC(C)(C)CO)cc1,0.76%
13,COc1ccc(-c2cn3ccc4ccccc4c3n2)cc1OC,-7.02%
14,Cc1ccc(OCc2nc3cc(Br)cnc3[nH]2)c(Cl)c1,-8.42%
15,CN(c1ccc(C(=O)NC(C)(C)C)cc1)S(C)(=O)=O,12.4%
16,C=C(C)CN(CC)Cc1ccc([N+](=O)[O-])o1,-0.603%
17,CCCc1[nH]nc2c1C(c1ccc(C)cc1)C(C#N)=C(N)O2 (centres unmarked),0.76%
18,CC(=O)N1c2ccc(NC(=O)C(F)(F)F)cc2C(C)(c2ccccc2)CC1(C)C (centres unmarked),16.3%
19,NS(=O)(=O)c1ccc(CCNC(=O)CSc2ncnc3c2sc2ccccc23)cc1,-2.14%
20,O=C(CSCC(=O)Nc1ccc2ccccc2c1)NCc1ccccc1,-5.07%
21,O=C(Nc1cccc(Cl)c1)NC1CCCC1,-6.21%
22,O=C(N[C@H](/C=C/S(=O)(=O)c1ccccc1)CCc1ccccc1)C(CCS(=O)(=O)c1ccccc1)NC(=O)N1CCOCC1 (some centres unmarked),-0.214%
23,CC(=O)c1c(C)oc2ccc(N(C(=O)c3ccccc3)S(=O)(=O)c3ccc(F)cc3)cc12,-14.4%
24,CCC(C(=O)Nc1nc(C)cs1)c1ccccc1 (centres unmarked),-9.85%
25,Cc1cnc(NC(=O)CSc2nc(O)c3ccccc3n2)s1,3.53%
26,Cn1nnnc1SCCCNCc1cc(Br)ccc1OCc1ccc(F)cc1,-6.6%

row,SMILES,% Inhibition @ 10 uM
1,O=CN1CCN(Cc2c(F)cccc2F)CC1,-3.5%
2,CC(C)CNS(=O)(=O)c1ccc(CCC(N)=O)cc1,2.95%
3,Cc1ccc2c(N)c(C(=O)c3ccc(Cl)cc3)sc2n1,-3.13%
4,CC(=O)N1c2ccccc2N=C2CC(C)(C)CC(O)=C2C1c1c(F)cccc1Cl (centres unmarked),-5.07%
5,CN1CCN(C(=O)c2cc3nc(-c4ccc(Cl)c(Cl)c4)cc(C(F)(F)F)n3n2)CC1,-3.52%
6,CN(CCc1ccccn1)Cc1ccc(-c2ccccc2)cc1,4.03%
7,Cn1c(=N)n(CCOc2ccccc2)c2ccccc21,0.132%
8,CCN1CCc2c(sc3nc(SC)nc(N)c23)C1,-7.19%
9,COc1ccc(NC(=O)C2=C(C)NC(=O)NC2c2ccc(Cl)cc2)cc1 (centres unmarked),4.03%
10,Cc1ccccc1S(=O)(=O)Cc1ccc(C(=O)NCCCN2CCC(C)CC2)o1,-4.96%
11,COc1ccc(F)cc1S(=O)(=O)N1CCN(C(=O)c2ccco2)CC1,1.76%
12,CCC(CC)C(=O)Nc1ccc(C(=O)Nc2cc(C)on2)cc1,0.331%
13,CC1=NC(C)(C)C(C)c2ccc3ccccc3c21 (centres unmarked),-2.89%
14,Clc1cccc(N2CCN(Cc3cccc(Cl)c3Cl)CC2)c1,-6.36%
15,CN1C(=O)C2(OCC(C)(c3ccccc3)CO2)c2ccccc21 (centres unmarked),-0.725%
16,COCC(=O)n1nc(-c2cccnc2)nc1NCc1ccc(OC)cc1,-2.92%
17,O=C1OC2(C(=O)c3ccccc3C2=O)C(C(=O)c2ccc(F)cc2)=C1O,-5.14%
18,Cc1sc(NC(=O)CN2CCOCC2)c(C(=O)c2ccccc2)c1C,-3.64%
19,CCCCNC(=O)C1CCC(=O)N1CCc1ccccc1 (centres unmarked),4.81%
20,COC(=O)c1c(NC(C)=O)c2c(C)c(C)sc2n1Cc1cccc(OC)c1,3.3%
21,COc1ccc(CN2CCN(c3ccc(F)cc3)CC2)cc1OC,-1.77%
22,COCCCNc1oc(/C=C/c2ccc(F)cc2)nc1C#N,-8.25%
23,N#Cc1c(NC(=O)CSc2nc(N)cc(O)n2)sc2c1CCCC2,-0.941%
24,Cc1[nH]c2ccccc2c1C(=O)/C=C/c1ccccc1F,1.17%
25,COCc1cc(C)nc(SCC(=O)N(c2ccccc2)c2ccccc2)c1C#N,-8.36%
26,CCC(C)Nc1nc(C)nc2c1sc1nc3c(cc12)COC(C)(C)C3 (centres unmarked),1.84%

row,SMILES,% Inhibition @ 10 uM
1,COc1ccc(C(=O)C2=C(O)C(=O)N(CCCn3ccnc3)C2c2ccc(Br)cc2)cc1 (centres unmarked),-3.45%
2,Cc1ccc(-c2cc(C(=O)NCC3CCCO3)c3ccccc3n2)c(C)c1 (centres unmarked),-1.41%
3,NC(=O)CSc1nnnn1CC(CC(=O)O)c1ccccc1 (centres unmarked),-0.0735%
4,CCn1c(C(=O)O)c(CNCc2cc(Br)ccc2OC)c2ccc(C)cc21,-0.397%
5,Cc1nc2c(Cl)cccc2c(O)c1CN(C)Cc1ccccc1,-0.577%
6,COc1ccc2c(Sc3ccccc3)c(C(=O)NC(C)C)[nH]c2c1,-6.64%
7,COC(=O)c1c(NC(=O)c2cccnc2Cl)sc(C(=O)N(C)C)c1C,5.52%
8,Cc1ccccc1OCc1nc(C#N)c(NCc2ccc(F)cc2)o1,3.62%
9,COc1ccc(/C=C2\N=C(c3ccccc3Cl)OC2=O)c(OC)c1OC,3.74%
10,OCCN(Cc1ccccc1)Cc1ccc(Cl)c(Cl)c1,1.08%
11,Cc1cc(C)n2ncc(-c3ccccc3)c2n1,-4.67%
12,Cc1onc(-c2ccccc2Cl)c1C(=O)Nc1ccc(S(N)(=O)=O)cc1,0.0265%
13,COc1ccc(CN2CCN(Cc3csc(C)c3)CC2)c(OC)c1OC,5.15%
14,Cn1c(C(=O)N2CCC(C(=O)N3CCN(c4ccccn4)CC3)CC2)cc2sccc21,6.46%
15,CC(C)OC(=O)c1cnn2c(C(F)(F)F)cc(-c3ccc(F)cc3)nc12,-1.93%
16,CCc1ccc(OCC(=O)Nc2ccc(S(=O)(=O)N3CCCCC3)cc2)c(Br)c1,-1.92%
17,O=CN(/C=C1\Sc2ccccc2C1=O)Cc1ccccc1,21.8%
18,COc1ccc(S(=O)(=O)N(C)CC(=O)Nc2ccc(F)cc2F)cc1,-1.36%
19,COCCn1c(CN2CCC(Cc3ccccc3)CC2)nc2c1c(=O)n(C)c(=O)n2C,-1.43%
20,CCCCc1ccc(NC(=O)c2ccn(C)n2)cc1,-0.736%
21,COc1ccc(C2=NC(=O)C3=Cc4cccc(C)c4OC3N2)c(OC)c1OC (centres unmarked),3.61%
22,O=C(NCc1ccncc1)C1CCN(S(=O)(=O)c2ccc(Br)cc2)CC1,-1.6%
23,CC1=C(C#N)C(c2cccnc2)C2=C(O)CC(c3ccc(Cl)cc3)CC2=N1 (centres unmarked),-0.436%
24,CCc1nc(=O)c2ccccc2n1-c1cccc(C(F)(F)F)c1,-3.71%
25,COc1ccc(C2CC3=NC(C)=C(C(=O)Nc4ccccn4)C(c4cccs4)C3=C(O)C2)cc1 (centres unmarked),-1.38%
26,NC(=O)CSc1nnc(CSc2ncccn2)n1-c1ccc(Cl)cc1,-0.942%

row,SMILES,% Inhibition @ 10 uM
1,Cc1ccc(C(C)C)c(OCC(=O)Nc2ccccc2)c1,-6.07%
2,CC1(C(=O)O)CCC(C(=O)NC2CCCCC2)C1(C)C (centres unmarked),2.33%
3,COc1ccc(CNC(=O)c2cccc3c2C(=O)N(CC2CCCO2)C3)cc1 (centres unmarked),0.708%
4,O=c1c2c3c(sc2n2cnnc2n1Cc1ccccc1)CCCC3,1.72%
5,CCn1c(SCC(=O)c2ccccc2)nc2c1c(=O)n(C)c(=O)n2C,0.851%
6,O=C(O)C1CCN(c2nc3ncccc3nc2-c2ccccc2)CC1,0.708%
7,COC(=O)C1=C(C)NC(=O)NC1c1ccc(C(C)C)cc1 (centres unmarked),0.00773%
8,Cc1cc(C)c(S(=O)(=O)Nc2cc(C)ccc2C)c(C)c1,2.46%
9,CCCCN(CCCC)C(=O)C1CCC(CNS(=O)(=O)c2cccc3nsnc23)CC1 (centres unmarked),-2.25%
10,CCN(CC)CCN(CC)Cc1ccccc1C(F)(F)F,-2.95%
11,Cc1ccccc1-c1nnc(C2CCN(S(=O)(=O)c3ccc4c(c3)CCCC4)CC2)o1,-8.68%
12,Nc1ccc(S(=O)(=O)Nc2nc3ccccc3nc2NCCc2ccccc2)cc1,3.31%
13,Cc1ccc(-n2c(SCc3nc(-c4cccs4)no3)nnc2-c2ccncc2)cc1,6.01%
14,CCOC(=O)C1=C(C)N=C2SCC(=O)N2C1c1ccc(N(C)C)cc1 (centres unmarked),1.84%
15,COc1ccc(CCN(Cc2ccccn2)S(=O)(=O)c2ccc(C(C)(C)C)cc2)cc1OC,0.387%
16,Cc1n[nH]c(SCC(=O)c2ccc(Cl)cc2)n1,2.38%
17,CC1CCc2c(sc(N)c2C(=O)Nc2cccc3ccccc23)C1 (centres unmarked),1.83%
18,COc1cc2c(cc1OC)CC1(CCCC1)N=C2,-2.35% and -3.63%
19,CC(C)(C)c1[nH]nc2c1C(c1cccc3ccccc13)C(C#N)=C(N)O2 (centres unmarked),3.65%
20,Cc1sc2nc(SCC(N)=O)n(-c3ccccc3)c(=O)c2c1C,6.24%
21,CC(C)n1c(CNC(=O)c2ccccc2)nc2ccccc21,-0.228%
22,CCOc1ccc(CN2CCN(CCO)CC2)cc1,-2.6%
23,CCCNC(=O)c1nn2c(C(F)(F)F)cc(-c3ccccc3)nc2c1Br,-3.27%
